# Experimental data published in the supplement of paper PMC10037445.
# ± gives the standard deviation of the averaged measurements. The full ranking holds about 2,900 compounds; the median of “IRF Lucia reporter activity, fold change vs agonist alone” is about 0.9, and the highest 2% start at about 2.8. The list shows a part of the results.
# Tests used:
# [1] = tested on: RAW-Dual; experiment: IRF Lucia reporter activity, fold change vs agonist alone; cytotoxicity flag (confluency mask): not cytotoxic; higher = enhanced IRF activity
# Summary of the method: (§1)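 Reporter activity is given as fold change relative to agonist-alone wells. To measure it, 50 nL of library stock was pin-tooled onto RAW-Dual macrophages (50,000 cells/well, DMEM, 384-well plates), a PRR agonist followed 1 h later, and cells stayed at 37 °C, 5% CO2. Twenty hours on, supernatant was assayed for IRF (QuantiLuc luminescence) and NF-κB (QuantiBlue, 620 nm absorbance), and wells under 70% of agonist-control IncuCyte confluency in both mask sets were marked cytotoxic.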
# [2] = tested on: RAW-Dual; experiment: IRF Lucia reporter activity, fold change vs agonist alone; cytotoxicity flag (confluency mask): cytotoxic (confluency <70% of control); higher = enhanced IRF activity
# Summary of the method: as §1
# [3] = tested on: RAW-Dual; experiment: IRF Lucia reporter activity, fold change vs agonist alone; higher = enhanced IRF activity; conditions: agonist: MPLA (TLR4) […]
# Summary of the method: as §1
# [4] = agonist: 3'3'-cGAMP (STING) 10 ug/mL
# [5] = library stock concentration (final ~1000-fold dilution): 10 mM, cytotoxicity flag (confluency mask): cytotoxic (confluency <70% of control)
# [6] = library stock concentration (final ~1000-fold dilution): 10 mM, cytotoxicity flag (confluency mask): not cytotoxic
smiles,measurement,setting,value
O=S(=O)(c1ccccc1)c1cnc2c(N3CCNCC3)cccc2c1 (library stock concentration (final ~1000-fold dilution): 10 mM),IRF Lucia reporter activity,[1]; [4],0.934
same,IRF Lucia reporter activity,[1]; agonist: LPS (TLR4) 0.1 ug/mL,1.02
NC(=O)N1CCC(CC(=O)N2CCC(C3c4ncc(Br)cc4CCc4cc(Cl)cc(Br)c43)CC2)CC1 (centres undefined) (library stock concentration (final ~1000-fold dilution): 10 mM),IRF Lucia reporter activity,[2]; [4],0.274
same,IRF Lucia reporter activity,[2]; agonist: LPS (TLR4) 0.1 ug/mL,0.566
NC(=O)N1CCC(CC(=O)N2CCC(C3c4ncc(Br)cc4CCc4cc(Cl)cc(Br)c43)CC2)CC1 (centres undefined),IRF Lucia reporter activity,[3]; [5],0.761
CCOc1cc(C(C)(C)C)ccc1C1=NC(C)(c2ccc(Cl)cc2)C(C)(c2ccc(Cl)cc2)N1C(=O)N1CCN(CCCS(C)(=O)=O)CC1 (centres undefined),IRF Lucia reporter activity,[3]; [5],0.942
CCOc1cc(C(C)(C)C)ccc1C1=NC(C)(c2ccc(Cl)cc2)C(C)(c2ccc(Cl)cc2)N1C(=O)N1CCN(CCCS(C)(=O)=O)CC1 (centres undefined) (library stock concentration (final ~1000-fold dilution): 10 mM),IRF Lucia reporter activity,[2]; [4],0.153
same,IRF Lucia reporter activity,[2]; agonist: LPS (TLR4) 0.1 ug/mL,1.03
CCCC(=O)Nc1ccc(OCC(O)CNC(C)C)c(C(C)=O)c1.Cl (centres undefined) (library stock concentration (final ~1000-fold dilution): 10 mM),IRF Lucia reporter activity,[1]; [4],1.03
same,IRF Lucia reporter activity,[1]; agonist: LPS (TLR4) 0.1 ug/mL,0.912
CCCC(=O)Nc1ccc(OCC(O)CNC(C)C)c(C(C)=O)c1.Cl (centres undefined),IRF Lucia reporter activity,[3]; [6],1.08
CC(C)c1ccc(C(=O)NC(=N)N)cc1S(C)(=O)=O,IRF Lucia reporter activity,[3]; [6],1.15
CC(C)c1ccc(C(=O)NC(=N)N)cc1S(C)(=O)=O (library stock concentration (final ~1000-fold dilution): 10 mM),IRF Lucia reporter activity,[1]; [4],0.998
same,IRF Lucia reporter activity,[1]; agonist: LPS (TLR4) 0.1 ug/mL,1.14
NS(=O)(=O)NCCNc1nonc1C(=Nc1ccc(F)c(Br)c1)NO (library stock concentration (final ~1000-fold dilution): 10 mM),IRF Lucia reporter activity,[1]; [4],1.13
same,IRF Lucia reporter activity,[1]; agonist: LPS (TLR4) 0.1 ug/mL,0.947
CN1CCN(CCCNc2ncc(Cl)c(-c3cc4c(C(=O)NC5CC5)cccc4s3)n2)CC1.Cl.Cl.Cl (library stock concentration (final ~1000-fold dilution): 10 mM),IRF Lucia reporter activity,[1]; [4],0.171 ± 0.028
same,IRF Lucia reporter activity,[1]; agonist: LPS (TLR4) 0.1 ug/mL,0.119 ± 0.032
COC1C(OC(=O)/C=C/C=C/C=C/C=C/C(=O)O)CCC2(CO2)C1C1(C)OC1CC=C(C)C (centres undefined) (library stock concentration (final ~1000-fold dilution): 10 mM),IRF Lucia reporter activity,[1]; [4],0.815
same,IRF Lucia reporter activity,[1]; agonist: LPS (TLR4) 0.1 ug/mL,0.977
Cl.O=c1n(CCCN2CCN(c3cccc(Cl)c3)CC2)nc2ccccn12,IRF Lucia reporter activity,"[3]; library stock concentration (final ~1000-fold dilution): 2 mM, cytotoxicity flag (confluency mask): not cytotoxic",1.28
Cl.O=c1n(CCCN2CCN(c3cccc(Cl)c3)CC2)nc2ccccn12 (library stock concentration (final ~1000-fold dilution): 2 mM),IRF Lucia reporter activity,[1]; [4],0.845
same,IRF Lucia reporter activity,[1]; agonist: LPS (TLR4) 0.1 ug/mL,0.945
CS(=O)(=O)O.Fc1ccc(C2CCNCC2COc2ccc3c(c2)OCO3)cc1 (centres undefined),IRF Lucia reporter activity,[3]; [5],1.64
CS(=O)(=O)O.Fc1ccc(C2CCNCC2COc2ccc3c(c2)OCO3)cc1 (centres undefined) (library stock concentration (final ~1000-fold dilution): 10 mM),IRF Lucia reporter activity,[2]; [4],0.828
same,IRF Lucia reporter activity,[2]; agonist: LPS (TLR4) 0.1 ug/mL,1.1
C=CC(=O)Nc1cc(Nc2nccc(-n3cc(CN(C)C)c(-c4ccccc4)n3)n2)c(OC)cc1N1CCOCC1 (library stock concentration (final ~1000-fold dilution): 2 mM),IRF Lucia reporter activity,[1]; [4],0.583
same,IRF Lucia reporter activity,[1]; agonist: LPS (TLR4) 0.1 ug/mL,1.19
COc1ccc(CCNCC(O)COc2cccc(C)c2)cc1OC.Cl (centres undefined) (library stock concentration (final ~1000-fold dilution): 10 mM),IRF Lucia reporter activity,[1]; [4],1.03
same,IRF Lucia reporter activity,[1]; agonist: LPS (TLR4) 0.1 ug/mL,1.42
COc1ccc(CCNCC(O)COc2cccc(C)c2)cc1OC.Cl (centres undefined),IRF Lucia reporter activity,[3]; [6],1.13
COc1ccc(-c2cc(C(F)F)nn2-c2ccc(S(N)(=O)=O)cc2)cc1F,IRF Lucia reporter activity,[3]; [6],1.43
COc1ccc(-c2cc(C(F)F)nn2-c2ccc(S(N)(=O)=O)cc2)cc1F (library stock concentration (final ~1000-fold dilution): 10 mM),IRF Lucia reporter activity,[1]; [4],1.24
same,IRF Lucia reporter activity,[1]; agonist: LPS (TLR4) 0.1 ug/mL,1.39
FC(F)(F)Oc1ccc2[nH]c(-c3ccc(OCCOCCOc4ccc(-c5nc6cc(OC(F)(F)F)ccc6[nH]5)nc4)cn3)nc2c1 (library stock concentration (final ~1000-fold dilution): 10 mM),IRF Lucia reporter activity,[1]; [4],0.7
same,IRF Lucia reporter activity,[1]; agonist: LPS (TLR4) 0.1 ug/mL,1.15
CCN(CC)C(=O)C1(c2ccccc2)CC1CN.Cl (centres undefined) (library stock concentration (final ~1000-fold dilution): 10 mM),IRF Lucia reporter activity,[1]; [4],1.01
same,IRF Lucia reporter activity,[1]; agonist: LPS (TLR4) 0.1 ug/mL,0.762
CCN(CC)C(=O)C1(c2ccccc2)CC1CN.Cl (centres undefined),IRF Lucia reporter activity,[3]; [6],0.971
CC(C)(O)c1ccccc1CCC(SCC1(CC(=O)O)CC1)c1cccc(/C=C/c2ccc3ccc(Cl)cc3n2)c1 (centres undefined) (library stock concentration (final ~1000-fold dilution): 10 mM),IRF Lucia reporter activity,[2]; [4],0.492
same,IRF Lucia reporter activity,[2]; agonist: LPS (TLR4) 0.1 ug/mL,1.52
CC(C)(O)c1ccccc1CCC(SCC1(CC(=O)O)CC1)c1cccc(/C=C/c2ccc3ccc(Cl)cc3n2)c1 (centres undefined),IRF Lucia reporter activity,[3]; [5],0.73
CC(C)COCC(CN(Cc1ccccc1)c1ccccc1)N1CCCC1.Cl.O (centres undefined) (library stock concentration (final ~1000-fold dilution): 10 mM),IRF Lucia reporter activity,[2]; [4],0.141
same,IRF Lucia reporter activity,[2]; agonist: LPS (TLR4) 0.1 ug/mL,0.96
